# Laboratory results published in PubChem BioAssay AID1460 (National Center for Advancing Translational Sciences (NCATS), 2008).
# In all, about 270,000 compounds went through this assay and about 5,800 (2.1%) were called active. The shares of active, inactive and inconclusive entries below differ from those in the screen. Calls follow the shape of the dose curve; as a rule, active = well fitted inhibition curve with a large enough effect; inconclusive = small, poorly fitted or top-dose-only effect; inactive = flat fitted curve, though single readings scatter. Where the call is inconclusive, the potency comes from a doubtful curve fit.
# Target: Microtubule-associated protein tau (Homo sapiens) (UniProt P10636)
# Assay: qHTS for Inhibitors of Tau Fibril Formation, Thioflavin T Binding; also: nearly all actives have a fitted effect of over 55% in size
# Details: recombinant tau K18 P301L (four-repeat tau fragment), heparin-induced fibrillization, ThT fluorescence; series mostly up to 57.4 µM
# Outline: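 K18 P301L tau (15 uM + 0.24 uM Alexa 594-tagged), heparin 20 uM, NaOAc pH 7, 6 h 37 C; ThT 30 uM, 1 h RT, ex 450/em 510 nm.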
# Potency is read from the fitted curve at half-maximal effect; tags tell the direction and shape of the fitted curve.
# UniProt P10636, sequence (P10636 whole entry, looked up): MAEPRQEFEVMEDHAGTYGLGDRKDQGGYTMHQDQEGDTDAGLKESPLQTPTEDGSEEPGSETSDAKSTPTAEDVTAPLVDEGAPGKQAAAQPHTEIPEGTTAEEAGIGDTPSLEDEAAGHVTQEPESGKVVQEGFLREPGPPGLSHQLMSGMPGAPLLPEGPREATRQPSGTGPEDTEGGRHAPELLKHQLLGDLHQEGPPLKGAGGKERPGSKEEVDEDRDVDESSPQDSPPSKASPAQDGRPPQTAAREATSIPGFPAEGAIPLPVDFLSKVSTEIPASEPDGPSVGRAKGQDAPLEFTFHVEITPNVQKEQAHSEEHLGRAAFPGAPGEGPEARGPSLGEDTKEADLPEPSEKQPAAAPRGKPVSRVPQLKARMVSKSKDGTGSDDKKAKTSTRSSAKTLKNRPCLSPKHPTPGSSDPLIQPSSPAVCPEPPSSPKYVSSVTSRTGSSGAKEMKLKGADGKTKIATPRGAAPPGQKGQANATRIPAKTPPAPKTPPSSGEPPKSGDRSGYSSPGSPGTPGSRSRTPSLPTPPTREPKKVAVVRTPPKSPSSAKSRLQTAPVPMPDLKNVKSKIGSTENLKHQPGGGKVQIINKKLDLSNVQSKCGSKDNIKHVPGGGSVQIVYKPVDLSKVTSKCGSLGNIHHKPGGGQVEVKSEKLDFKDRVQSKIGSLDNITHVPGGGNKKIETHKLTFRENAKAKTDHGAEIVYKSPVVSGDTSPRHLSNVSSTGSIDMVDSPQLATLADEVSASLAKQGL
row,Structure (SMILES),Potency
1,CC(C)Oc1ccc(C(=O)Nc2ccc(N3CCCCC3)cc2)cc1,"inconclusive: 2.82 µM [inhibitor, full curve]"
2,Cc1nnc(N2CCCC(C(=O)Nc3ccccc3C(F)(F)F)C2)c2nn(-c3ccccc3)c(C)c12 (stereo not drawn),"inconclusive: 17.8 µM [inhibitor, partial curve]"
3,CC1CCc2c(sc3nnn(Cc4ccccc4)c(=O)c23)C1 (stereo not drawn),"inconclusive: 7.94 µM [inhibitor, partial curve, poor fit]"
4,CCN(CC)c1ccc(/C=C2/C(=O)N(c3ccc([N+](=O)[O-])cc3)N=C2N2CCOCC2)cc1,"inconclusive: 14.1 µM [inhibitor, partial curve]"
5,Cc1ccc(-c2nc3ccccn3c2Nc2c(C)cccc2C)o1,"inconclusive: 25.1 µM [inhibitor, single point]"
6,CCOC(=O)c1sc(NC(=O)c2nc3ncccn3n2)c(C(=O)OC(C)C)c1C,inactive
7,COc1ccc(-c2n[nH]c(=S)n2-c2ccc3c(c2)OCCO3)cc1,inactive
8,Cc1oc(-c2ccccc2F)nc1CS(=O)(=O)CC(=O)N1CCc2ccccc21,"inconclusive: 35.5 µM [inhibitor, single point]"
9,COc1ccc(-c2cc(C(=O)Nc3ccccc3O)c3ccccc3n2)cc1OC,"inconclusive: 22.4 µM [inhibitor, single point]"
10,COc1ccc(-n2c(SCC(=O)N3CCCCC3)nc(O)cc2=O)cc1,"inconclusive: 7.94 µM [inhibitor, partial curve]"
11,CCCCCc1cc(=O)oc2c(C(CCN(CC)CC)c3ccc(N(C)C)cc3)c(OC)cc(OC)c12 (stereo not drawn),"inconclusive: 35.5 µM [inhibitor, single point]"
12,COc1ccc(CNC(=O)c2cc(-c3cccs3)nc3ccccc23)c(OC)c1,"inconclusive: 31.6 µM [inhibitor, single point]"
13,COc1cc(NS(=O)(=O)c2ccc(N/C=C(\C#N)c3nc4ccccc4o3)cc2)nc(OC)n1,"inconclusive: 12.6 µM [inhibitor, partial curve, poor fit]"
14,O=C(COC(=O)CNS(=O)(=O)/C=C/c1ccccc1)Nc1cc(S(=O)(=O)N2CCCCC2)ccc1Cl,inactive
15,O=C(O)CCc1ccc(-c2ccc(Br)cc2)o1,"inconclusive: 28.2 µM [inhibitor, partial curve]"
16,COc1ccc(-c2noc(CN3CCC(Cc4ccccc4)CC3)n2)cc1,"inconclusive: 28.2 µM [inhibitor, single point]"
17,CCOc1ccccc1N1CC(c2nc3ccccc3n2CCOc2ccc(OC)cc2)CC1=O (stereo not drawn),inactive
18,CC(=O)Nc1ccc(Sc2ncccc2C(=O)Nc2ccc(OC(F)(F)F)cc2)cn1,"inconclusive: 39.8 µM [activator, single point]"
19,COc1ccc(/C=C2\SC(=S)N(CC(=O)NCCO)C2=O)cc1,"inconclusive: 17.8 µM [inhibitor, partial curve]"
20,COc1ccc(N2CC(C(=O)Nc3ccc(NC(C)=O)cc3)CC2=O)cc1 (stereo not drawn),inactive
21,Cc1cccc([C@@H]2CN(C)CCc3c2cc(O)c(O)c3Cl)c1,inactive
22,CCOc1cc(N2CCOCC2)c(OCC)cc1NC(=O)c1cc(-c2ccco2)nc2ccccc12,"inconclusive: 15.8 µM [inhibitor, partial curve]"

row,Structure (SMILES),Potency
1,CS(=O)(=O)N(CCc1ccccc1)CC(=O)Nc1ccccc1,inactive
2,Cc1ccc(NC(=S)N/N=C2\CC3CC=CC23)c(C)c1 (stereo not drawn),"inconclusive: 22.4 µM [inhibitor, partial curve]"
3,O=C(Nc1ccc2nc(SCCOc3ccccc3Cl)sc2c1)c1cccs1,inactive
4,COC(=O)c1sccc1S(=O)(=O)N1CCN(c2ccccc2OC)CC1,inactive
5,CC(C)(C#N)N([O-])C=C[N+](=O)C(C)(C)C#N,"inconclusive: 28.2 µM [inhibitor, partial curve]"
6,CCOC(=O)c1cc(-c2ccc(OC)c(S(=O)(=O)Nc3ccc(OC)cc3OC)c2)on1,inactive
7,CCOc1ccc(Nc2nc(NCC3CCCO3)c3ccccc3n2)cc1 (stereo not drawn),"inconclusive: 22.4 µM [inhibitor, partial curve]"
8,CC(C)c1ccc(S(=O)(=O)c2cnc(SCC(=O)Nc3cccc(C(F)(F)F)c3)nc2N)cc1,"inconclusive: 1.41 µM [activator, full curve, poor fit]"
9,Cc1cccc(NNC(N)=S)c1C,"inconclusive: 28.2 µM [inhibitor, partial curve]"
10,c1nc(NC2CCNCC2)c2cc(-c3ccc4c(c3)OCO4)ccc2n1,"inconclusive: 39.8 µM [activator, single point]"
11,Cc1cccn2c(=O)c(C=O)c(Cl)nc12,"inconclusive: 31.6 µM [inhibitor, single point]"
12,CCOc1ccc(C(c2c(O)cc(C)n(CCOC)c2=O)N2CCN(c3ccccc3F)CC2)cc1 (stereo not drawn),"inconclusive: 6.31 µM [inhibitor, partial curve]"
13,CC1CCCN(C(=O)C(C)Nc2cc(Cl)ccc2N2CCOCC2)C1 (stereo not drawn),"inconclusive: 22.4 µM [inhibitor, single point]"
14,Cc1cc(C)c2c(=O)[nH]c(SCC(=O)c3ccc(C(C)C)cc3)nc2n1,"inconclusive: 25.1 µM [inhibitor, single point]"
15,Cc1cc(NC(=O)CCOc2ccc(F)cc2)no1,inactive
16,O=C1ON=C(c2ccccc2)/C1=C/c1ccco1,"inconclusive: 15.8 µM [inhibitor, partial curve]"
17,COc1cc2ncnc(NCc3ccc(C)cc3)c2cc1OC,inactive
18,COc1ccc(S(=O)(=O)Nc2ccc3c(c2)OCO3)cc1OC,"inconclusive: 28.2 µM [inhibitor, partial curve]"
19,O=C(CSc1nccc(=O)[nH]1)c1ccco1,"inconclusive: 22.4 µM [inhibitor, single point]"
20,O=C(CCN1C(=O)/C(=C/c2cccc(Br)c2)SC1=S)NNC(=O)c1cccnc1,inactive
21,Cc1cc(NC(=O)/C=C/C(=O)N(CC(=O)NC2CCCC2)c2cccc3ccccc23)no1,"inconclusive: 14.1 µM [inhibitor, partial curve]"
